Tested on: right and left V1 (primary visual cortex) BOLD signal
Test: BOLD fMRI of visual cortex during red and blue photic stimulation after oral drug or placebo
Settings: 1x4 ROI in right and left V1, mean across all trials, 2.5 mg oral

`C[C@H](N)Cc1ccccc1.C[C@H](N)Cc1ccccc1.O=S(=O)(O)O` [d-amphetamine, d-amphetamine sulfate] was tested, and the “mean BOLD signal change” value (blue light (470 nm) 0.12 lux) was 2.04% and the “mean BOLD signal change” value (red light (660 nm) 0.12 lux) was 1.24%.

From patent publication US20060039856A1, “Magnetic resonance with stimulation” (McLean Hospital Corporation, priority 2001, published 2006)
